Data reported in PubChem BioAssay AID1963576 (National Center for Advancing Translational Sciences (NCATS), 2024).
The campaign covered roughly 46,000 compounds. About 60 (0.1%) were called active. Inconclusive results (about 3%) are left out. The call rests on the fitted dose curve; in most records, active means well fitted inhibition curve with a large enough effect; inconclusive means small, poorly fitted or top-dose-only effect; inactive means no such curve, though single readings can be large or run the other way. The list shows a part of the results.

assay: Primary qHTS assay for Inhibitors of ovarian cancer metastasis using an organotypic tumor microenvironment (TME) model.; further: nearly all actives have a fitted effect of over 65% in size;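 on activity change, negative = inhibition: plate controls were DMSO wells for no effect and tomatine positive control wells for full effect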; conditions: SKOV3ip1-GFP adhesion/invasion on 3D omental model, fluorescence; series mostly up to 45.8 µM; activity change, negative = inhibition: at the top concentration
How it was run: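 A 3D layer of primary human omental fibroblasts, mesothelial cells, fibronectin and collagen I, grown 48 hr, received SKOV3ip1-GFP cells in serum-free medium plus compounds at 0.36-46 umol/L. After 2 hr RT and 16 hr 37 C, fixed adherent GFP cells were counted; normalized to DMSO and tomatine.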

| Structure (SMILES) | activity change, negative = inhibition | outcome |
| --- | --- | --- |
| CCCCN(C)C(=O)c1ccc2c(c1)N(Cc1ccc(F)cc1)C(=O)c1ccccc1S2(=O)=O | inactive: -3.47% | – |
| CC(=O)N1CCOc2cc(S(=O)(=O)Nc3c(C)cccc3C(C)C)c(Cl)cc21 | inactive: 1.51% | – |
| CC(C)CCNC(=O)c1c2c(nc3ccccc13)C(=O)N(C1CCCCC1)C2 | – | inactive |
| Cc1scc(CN2CCN(c3ccc(F)cc3)CC2)c1C | inactive: -5.58% | – |
| COC(=O)c1sccc1S(=O)(=O)N1CCN(c2ccc(Cl)cc2)CC1 | inactive: 3.76% | – |
| CC1=C(c2ccc(Cl)cc2)S(=O)(=O)N=C1N1CCC(C(=O)NCCc2ccco2)CC1 | inactive: -0.741% | – |
| CCOC(=O)c1ccccc1NC(=O)c1cc2c(s1)-c1ccccc1SC2 | – | inactive |
| COc1ccc(Br)cc1CNC(=O)CCc1cn(Cc2ccc(C)cc2)c2ccccc12 | inactive: 0.972% | – |
| O=C(CCCn1c(=O)c2sccc2n(Cc2ccc(Cl)cc2)c1=O)NCc1ccc2c(c1)OCO2 | inactive: -21.5% | – |
| Cc1ccc(CNc2ncccc2-c2nc(-c3ccc(Cl)cc3)no2)cc1 | inactive: -13.1% | – |
| N#CC(=C1Nc2ccccc2S1)c1ccnc(OCc2ccc(CN3CCOCC3)cc2)n1 | inactive: -4.68% | – |
| CC(=O)OCC(=O)[C@@]12N=C(C)O[C@H]1C[C@H]1[C@@H]3CCC4=CC(=O)C=C[C@]4(C)[C@@H]3[C@@H](O)C[C@@]12C | inactive: 17.1% | – |
| COc1ccccc1N1CCN(S(=O)(=O)CCNC(=O)COc2ccccc2F)CC1 | – | inactive |
| CC(C)CC(NC(=O)C1CCCCC1)C(=O)Nc1cccc(C(F)(F)F)c1 (configuration not stated) | inactive: 7.62% | – |
| Cc1ccc(-c2nc(S(=O)(=O)c3ccccc3)c(SCC(=O)NC3CCCCC3)o2)cc1 | inactive: 1.11% | – |
| CC(C)c1ccc(NC(=O)CN2C(=O)CSc3ccc(S(=O)(=O)N4CCCC4)cc32)cc1 | – | inactive |
| Cc1ccc(Cl)cc1NC(=O)c1cc(CN2CCCC2)on1 | inactive: 3.06% | – |
| COc1ccc(CCNC(=O)CCc2cn(Cc3ccc(F)cc3)c3ccccc23)cc1OC | inactive: -25.1% | – |
| Cc1ccc(Cl)cc1N1CCN(C(=O)c2nn(C)c3c2CS(=O)(=O)c2ccccc2-3)CC1 | inactive: -0.358% | – |
| O=C(NC1CC1)c1ccc(Cn2c(SCc3ccc(F)cc3)nc3cccnc32)cc1 | inactive: -1.82% | – |
| COc1ccc(-c2cc(C(F)(F)F)nc(SCCC(=O)Nc3cccc(OC)c3)n2)cc1 | inactive: -7.86% | – |
| CCc1cccc(C)c1NC(=O)c1cc(S(=O)(=O)N2CCCCCC2)cn1C | – | inactive |
| CCc1ccc(NC(=O)c2ccc(NS(=O)(=O)c3c(C)noc3C)cc2)cc1 | inactive: 0.923% | – |
| Cc1cccc(N2CCN(C(=O)c3cccn3-c3nnc(N4CCCCC4)s3)CC2)c1C | – | inactive |

| Structure (SMILES) | activity change, negative = inhibition | outcome |
| --- | --- | --- |
| CCCOc1ccc(C(=O)Nc2ccc(-c3cc4ccccc4oc3=O)c(C)c2)cc1 | inactive: 3.64% | – |
| COc1ccc(-c2cc(C(C)=O)c(C)n2CCC(=O)Nc2ccc(C)c(Cl)c2)cc1 | – | inactive |
| O=c1cc(CSc2ccccc2)[nH]c2ccc(F)cc12 | inactive: 2.11% | – |
| COc1ccc(NC(=O)CCn2c(-c3ccc(F)cc3)cc(C(C)=O)c2C)c(OC)c1 | – | inactive |
| CCCNc1ncnc2c1c(-c1ccccc1)cn2-c1ccc(OCC)cc1 | inactive: -24.2% | – |
| CCc1ccc(CNC(=O)c2sc3nc[nH]c(=O)c3c2C)cc1 | inactive: 29.4% | – |
| O=C(COc1ccc(F)cc1)Nc1ccc(S(=O)(=O)N(Cc2ccccc2)c2ccccc2)cc1 | inactive: -4.32% | – |
| CCc1c(C)nc(SCc2nc(-c3ccccc3C)no2)[nH]c1=O | – | inactive |
| CCN(C(=O)Cc1c(C(=O)O)c(C)cn1C)c1cccc(Cl)c1 | inactive: 3.1% | – |
| COc1ccc(OC)c(CNc2ncnc3c2nc2n3CCCC2)c1 | inactive: 6.33% | – |
| CCc1ccc(Nc2nnc(-c3cc4cc(OC)ccc4oc3=O)s2)cc1 | inactive: 0.697% | – |
| CC(=O)Nc1ccc(Nc2c(CCC(C)C)c(C)c(C#N)c3nc4ccccc4n23)cc1 | inactive: 0.693% | – |
| COc1cc(NC(=O)C(NS(=O)(=O)c2ccc3c(c2)CCCC(=O)N3)C(C)C)cc(OC)c1 (configuration not stated) | inactive: 126% | – |
| Cc1ccc(NC(=O)c2sc3nc(-c4ccncc4)ccc3c2N)cc1 | inactive: 1.32% | – |
| Cc1ccc(CNC(=O)CCc2nnc3n(C)c(=O)c4sccc4n23)cc1 | – | inactive |
| CCOc1ccc(S(=O)(=O)c2c(C(=O)c3ccc(C)c(C)c3)cnc3ccccc23)cc1 | inactive: 3.96% | – |
| Cc1ccccc1Cn1c(=O)n(CCc2ccccc2)c(=O)c2sc3ccccc3c21 | – | inactive |
| COC(=O)c1sccc1S(=O)(=O)N(CC(=O)Nc1ccc(C)c(F)c1)c1ccc(C)c(C)c1 | inactive: 3.29% | – |
| Cc1ccccc1C(=O)Nc1nnc(S(=O)(=O)N(C)c2ccc(Cl)cc2)s1 | inactive: 8.65% | – |
| CCCN(CCC)C(=O)C1CCCN(S(=O)(=O)c2cc(Br)cc3c2N(C(=O)CC)CC3)C1 (configuration not stated) | – | inactive |
| COc1ccc(-c2cc(C(F)(F)F)n3nc(C(=O)Nc4sc5c(c4C(=O)OC(C)C)CCC(C)C5)cc3n2)cc1 (configuration not stated) | inactive: -11.9% | – |
| O=C(Nc1ccc(-c2nc3cc(NC(=O)c4ccc(Cl)cc4)ccc3o2)cc1)c1ccc(Cl)cc1 | – | inactive |
| CC(=O)Nc1ccc(NC(=O)C(c2ccccc2)N2Cc3ccccc3C2=O)cc1 (configuration not stated) | – | inactive |
